PubChem BioAssay AID1508624 (National Center for Advancing Translational Sciences (NCATS), 2021)
Among all 48,000 compounds or so, about 120 (0.25%) were called active. Inconclusive results (about 4%) are left out. Calls follow the shape of the dose curve; as a rule, active = well fitted activation curve with a large enough effect; inconclusive = small, poorly fitted or top-dose-only effect, or another doubt; inactive = no such curve, though single readings can be large or run the other way. The list shows a part of the results.

assay: Primary qHTS for Identification of Small Molecule Activators of Huntingtin-Antisense Promoter Activity; conditions: HEK293 HTT-AS promoter firefly luciferase reporter (activity 0% = vehicle and -100% = no light), 24 h; series mostly up to 57.5 µM; activity change, positive = activation: at the top concentration; also: nearly all actives have a fitted effect of over 55% in size
In short: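 Firefly luciferase readout (Dual-Glo, 10 min RT) after 24 h, 37 °C compound exposure (final up to 57.5 uM) of HEK293 reporter cells cultured 24 h beforehand; PTC124 at 50 uM final as control inhibitor; activity scaled vehicle 0%, zero RLU -100%.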

Activity change, positive = activation, inactive:
CCN(CC)CCNC(=O)CCn1c(=O)c2cccn2c2cccnc21 -8.95%
Cc1ccc(Cl)cc1NC(=O)Cn1c(=O)cc(C)c2c(C)nn(C)c21 1.69%
Cc1ccc(CNC(=O)CCNS(=O)(=O)c2ccc3c(c2)oc(=O)n3C)cc1 -12.8%
O=C(COc1ccc(Br)cc1Br)Nc1ccc(S(=O)(=O)Nc2ncccn2)cc1 -8.81%
Cc1cc(C)c(S(=O)(=O)Nc2ccc3oc(C)c(C(=O)OC(C)C)c3c2)cc1C -14.6%
Cc1oc(-c2cccc(Cl)c2)nc1CN1CCC(C(=O)NC(C)C)CC1 -6.36%
O=C(CCn1c(=O)c2sccc2n(Cc2ccc(F)cc2)c1=O)NCc1ccc2c(c1)OCO2 -7.89%
COc1cccc(C2CC(=O)Nc3c2c(=O)n(C)c2nc4ccccc4n32)c1OC (stereo not drawn) -22.6%
Cc1ccc(NC(=O)CC2Oc3ccc(C)cc3NC2=O)c(C)c1 (stereo not drawn) -19.2%
CCOc1ccc(NC(=O)Cn2c(=O)n(CCc3ccccc3)c(=O)c3c4c(sc32)CCCC4)cc1 -11.9%
COc1cccc(Nc2nnc(-c3cc4ccc(O)cc4oc3=O)s2)c1 -6.2%
CCN1CCN(c2ncc3c(n2)CCN(Cc2cc(Br)cs2)C3)CC1 -13.9%
CCC(C)NC(=O)c1cc2cc(S(=O)(=O)N3CCCCC3)ccc2n1C (stereo not drawn) -35.4%
Cc1c(O)nc(SCC(=O)Nc2ccc(Cl)cc2Cl)n(-c2ccc(F)cc2)c1=O -28.7%
Cc1nn(C)c2c1c(C(F)(F)F)cc(=O)n2CC(=O)NCc1ccc(OC(C)C)cc1 -31.2%
C[C@H](NC(=O)C(C#N)=Cc1cccc(Br)n1)c1ccccc1 -89.3%
CCC(C)c1ccc(OCC(=O)Nc2cccc3ccc(C)nc23)cc1 (stereo not drawn) -5.44%
Cc1cn(C)c(CC(=O)NCc2cccc(Cl)c2)c1C(=O)O -16.1%
C/C(=N/NC(=O)c1ccncc1)C(=O)O -0.0841%
CC(C)(C)c1ccc(S(=O)(=O)N2CCC(Oc3ccc(-n4cnnn4)cc3)CC2)cc1 -15.1%
COc1cc(Cn2c(=O)oc3ccc(C)cc32)ccc1OCCC(C)C -38.1%
CC(C)(C)c1ccc(CSC2=Nc3ccccc3C3=NC(CC(=O)NCc4cccs4)C(=O)N23)cc1 (stereo not drawn) -17.4%
Cc1ccc(CNS(=O)(=O)c2ccc(N3CCCCS3(=O)=O)cc2)cc1 -17.3%
O=C(CNC(=O)c1ccc(Cl)cc1)OCc1cc(=O)n2nc(C3CC3)sc2n1 -7.32%
O=C(CSc1nc2ccsc2c(=O)n1Cc1ccc(F)cc1)NCc1ccc(Cl)cc1 -20.8%
CN1c2ccc(Cl)cc2-c2nc(SCC(=O)NCc3ccc(F)cc3)ncc2S1(=O)=O 7.44%
CC1=C(C(=O)Nc2ccc(C)cc2C)C(c2ccccc2)n2nc(SCC(=O)c3ccc(C)cc3)nc2N1 (stereo not drawn) -1.52%
O=C1CCCc2cc(S(=O)(=O)NCC3CCC(C(=O)Nc4ccc(Cl)cc4)CC3)ccc2N1 (stereo not drawn) -21.2%
Cc1cc(Nc2ccc(Br)cc2)n2nc(-c3ccccc3C)nc2n1 -18.6%
CCc1ccccc1NC(=O)CCNS(=O)(=O)c1ccc2c(c1)CCCC(=O)N2 -6.91%
Oc1ccc(-c2nc(-c3ccc(F)cc3)c(-c3ccncc3)[nH]2)cc1 -45.6%
COc1ccc(NC(=O)Cn2c(=O)oc3ccccc32)cc1 -8.91%
CCc1ccccc1NC(=O)Cn1c(=O)n(Cc2ccco2)c(=O)c2ccccc21 -18.1%
COc1ccc(-c2c(C#N)c(SCC(=O)Nc3cccc(Cl)c3)nc(C)c2C(=O)Nc2ccccc2)cc1OC -4.44%
CCc1ccc(NC(=O)C2CCN(c3nn4cc(-c5ccc(OC)cc5)nc4s3)CC2)cc1 2.45%
c1ccc(-c2nc[nH]c2-c2ccccc2)cc1 -11.1%
Cc1ccc(N2C(=O)CC(c3ccccc3F)C3=C2COC3=O)cc1Cl (stereo not drawn) -22.1%
CCCCCCCC(=O)OCC(O)CO (stereo not drawn) -15.3%
CCN(CC)C(=O)Cn1c(=O)n(-c2ccc(Cl)c(Cl)c2)c(=O)c2c(C)c(C(=O)N(CC)CC)sc21 -6.75%
CCc1nnc2c(N3CCN(c4cccc(C)c4)C(C)C3)nc3ccccc3n12 (stereo not drawn) -16.7%
CC(C)c1ccc(C2Sc3ccccc3NC3=C2C(=O)c2ccccc23)cc1 (stereo not drawn) -79.8%
COc1ccc(Nc2oc(-c3ccc(COc4cccc(C)c4)o3)nc2C#N)cc1 -21.9%
COC(=O)c1cc(NC(=O)CCc2c(C)nc3c(c(C)nn3C(C)(C)C)c2C)cc(C(=O)OC)c1 -0.677%
COc1ccc(CCNC(=O)Cc2c(C)c3cc4c(C(C)(C)C)coc4c(C)c3oc2=O)cc1OC 4.11%
Cc1cc(C)c2c(c1)NC(=O)C2(O)c1c[nH]c2ccccc12 (stereo not drawn) -10.1%
Cc1ccc2c(c1)cc1c(=O)n(Cc3cccc(Cl)c3)nc(C)n12 1.52%
O=C(Nc1cc(Cl)ccc1Cl)c1cc(S(=O)(=O)NCCc2ccccc2)ccc1F -20%
Cc1nc(N2CCOCC2)c2c(C(=O)N3CCN(c4ccccc4F)CC3)c(C)oc2n1 -6.14%
Cc1ccc(CN2COc3ccc4c(C)cc(=O)oc4c3C2)cc1 -6.59%
Cc1ccc(C(=O)N(Cc2ccco2)Cc2sccc2C)cc1 -17.8%
CC1CCc2onc(C(=O)N3CCN(c4ccccc4)CC3)c2C1 (stereo not drawn) 7.74%
O=C(COc1ccccc1F)Nc1ccccc1C(=O)OCc1cc(=O)n2nc(C3CC3)sc2n1 11%
O=C(NCc1ccc(Cl)cc1)c1cc2c(s1)-c1ccccc1SC2 -3.18%
CCCN1CCN(CCCNC(=O)c2ccc3c(c2)sc2nc(-c4ccc(OC)cc4)cn23)CC1 5.93%
CCS(=O)(=O)c1ccc(OC)c(C(=O)OC)c1 0.298%
CC1=C(C(=O)NCc2ccccc2Cl)C2(CCCCCC2)OC1=O -20.2%
O=C(O)c1ccc2cc(-c3ccc(O)c(C45CC6CC(CC(C6)C4)C5)c3)ccc2c1 -8.91%
Cc1ccc2c(CNCC(C)c3ccccc3)c(C(=O)O)n(Cc3ccccc3C)c2c1 (stereo not drawn) -11.2%
Cc1ccccc1Cn1c(CN2CCC(C(=O)NCc3cccnc3)CC2)cc2ccccc21 -13.3%
CCOC(=O)C1CCN(C(=O)Cn2nc(C)n3c(cc4sccc43)c2=O)CC1 -11.9%
O=C(NC[C@H](O)CO)c1ccncc1Nc1ccc(I)cc1F -16.2%
Cn1c(SCC(=O)N2CCOCC2)ncc(C(=O)Nc2ccccc2)c1=O -2.7%
CCc1ccc(NC(=O)CCn2c(-c3ccc(OC)cc3)cc(C(C)=O)c2C)cc1 -34%
